Several values for one entry are separate records, joined by “and”; a condition that tells them apart may be missing. Identical values can stand only once. In all, about 16,000 compounds went through this assay and about 40 (0.2%) were called active. Roughly 1% stayed inconclusive and do not appear here. Calls follow the shape of the dose curve; as a rule, active = well fitted activation curve with a large enough effect; inconclusive = small, poorly fitted or top-dose-only effect, or another doubt; inactive = no such curve, though single readings can be large or run the other way. Some of the results follow.
target: Rap guanine nucleotide exchange factor 4 (Homo sapiens) (UniProt Q8WZA2); test: Validation qHTS for agonist of cAMP-regulated guanine nucleotide exchange factor 4 (EPAC2); details: EPAC2 Rap1B BODIPY-GDP exchange, fluorescence; activation: active compounds read high;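 also: exchange makes BODIPY-GDP fluorescence drop when released from Rap1B; series mostly up to about 150 µM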
Procedure, shortened: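 Fluorescent exchange assay: 100 nM EPAC2 with 250 nM RAP1B-BODIPY-GDP and 50 uM GDP; compound added, 5 min at room temperature, then read (ex 480/em 540 nm) every 5 min for 30 min. Normalized to 6.5 mM cAMP agonist control.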
% is scaled to controls: 0 for no effect and ±100 for the full control effect.

UniProt Q8WZA2, sequence (Q8WZA2 whole entry, looked up): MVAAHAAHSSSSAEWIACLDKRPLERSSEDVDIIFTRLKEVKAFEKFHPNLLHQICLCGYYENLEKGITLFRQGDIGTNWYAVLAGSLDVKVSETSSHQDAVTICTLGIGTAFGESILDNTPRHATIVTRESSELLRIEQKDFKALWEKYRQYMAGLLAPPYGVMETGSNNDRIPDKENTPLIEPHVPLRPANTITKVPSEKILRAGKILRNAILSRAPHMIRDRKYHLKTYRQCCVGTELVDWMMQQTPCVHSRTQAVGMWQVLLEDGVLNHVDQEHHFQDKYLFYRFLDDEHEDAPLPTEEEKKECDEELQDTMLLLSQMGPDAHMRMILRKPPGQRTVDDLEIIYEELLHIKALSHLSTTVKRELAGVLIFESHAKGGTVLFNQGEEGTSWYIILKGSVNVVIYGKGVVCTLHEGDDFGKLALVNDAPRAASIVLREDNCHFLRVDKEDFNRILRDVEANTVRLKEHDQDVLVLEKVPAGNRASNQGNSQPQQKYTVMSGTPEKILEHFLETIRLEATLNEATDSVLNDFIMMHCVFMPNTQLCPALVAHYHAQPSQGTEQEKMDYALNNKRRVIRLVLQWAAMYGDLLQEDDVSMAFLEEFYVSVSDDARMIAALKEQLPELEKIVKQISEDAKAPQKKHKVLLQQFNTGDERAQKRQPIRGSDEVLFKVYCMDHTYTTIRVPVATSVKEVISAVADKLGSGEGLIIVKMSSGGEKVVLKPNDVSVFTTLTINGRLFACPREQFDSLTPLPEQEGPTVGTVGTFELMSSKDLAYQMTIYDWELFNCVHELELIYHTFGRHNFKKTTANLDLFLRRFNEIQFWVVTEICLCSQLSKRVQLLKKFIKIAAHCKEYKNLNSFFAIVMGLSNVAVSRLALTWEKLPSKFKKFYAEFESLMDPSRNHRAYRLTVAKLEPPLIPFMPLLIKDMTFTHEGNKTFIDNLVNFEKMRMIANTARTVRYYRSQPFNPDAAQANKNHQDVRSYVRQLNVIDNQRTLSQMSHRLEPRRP

activation, inactive:
COc1ccc(C(=O)N2CCCC(c3nc(SCc4ccccn4)ncc3C)C2)cc1F (stereo unspecified) -21.9%
O=C1CN(/N=C/c2ccc(-c3ccc([N+](=O)[O-])cc3)o2)C(=O)N1 -4.02%
COc1ccc(CNc2ncncc2-c2cccnc2)c(OC)c1 7.59%
Cc1cnc(CNc2nc(-c3ccccc3C(F)(F)F)nc3ccccc23)cn1 -8.22%
CCC(=O)Oc1ccc2c(c1)CC[C@@H]1[C@@H]2CC[C@]2(C)[C@@H](OC(=O)CC)CC[C@@H]12 -23.4%
CC(=O)Nc1ccccc1-c1nc(CNC(=O)c2ccc(-n3cccn3)cc2)c(C)o1 -6.88%
C#Cc1cccc(C(=O)NCc2nc(-c3ccccc3NC(=O)C3CCCO3)oc2C)c1 (stereo unspecified) -13.1%
CC(C)c1c(O)ccc2c1CCC1[C@@](C)(CO)CCC[C@@]21C (stereo partly specified) 15%
Cn1c(=O)c(-c2cccc(C#N)c2)nc2cnc(Oc3ccccc3)nc21 6.56%
Cc1cc(C=O)cc(C)c1[N+](=O)[O-] -9.96%
Cc1noc(C)c1C(=O)N1CCC2(CCN(Cc3ccc(C#N)cc3)CC2)CC1 4.93%
c1cncc(CNc2nc(-c3ccc4c(c3)OCO4)nc3ccccc23)c1 2.9%
Cc1cnc(C(=O)N2CCOc3ccc(CN4CCCC(C(=O)c5cccnc5)C4)cc3C2)[nH]1 (stereo unspecified) 5.58%
CC1(O)CCC(C(C)(C)O)CC1 (stereo unspecified) -9.93%
COC(=O)C(C)(N)Cc1ccc(O)cc1 (stereo unspecified) -18.8%
C[C@@H](Cc1ccccc1)Nc1ncnc2c1ncn2[C@@H]1O[C@H](CO)[C@@H](O)[C@H]1O -7.61%
Cc1ccccc1-c1cncnc1NCc1ccccc1 -2.84%
CCC1COCCS(=O)(=O)N1Cc1cccc(C(F)(F)F)c1 (stereo unspecified) -26.6%
CC(C)CN1CCC2(CC1)CCN(C(=O)c1csnn1)CC2 -22.3%
COc1cc(O)c2c(c1)C(=O)c1cc(C)cc(O)c1C2=O -11.6%
Cc1nc2cc(NC(=O)[C@@H]3C[C@@H](Sc4ccccn4)CN3Cc3ccc(F)cc3F)ccc2s1 -16.1%
CCOC(=O)n1ccn(C)c1=S -19.9% and -4.44%
O=C1OC(=O)C2C3CCC(O3)C12 (stereo unspecified) -11.8% and 5.48% and -16.4%
O=P(O)(O)OP(=O)(O)O -9.69%
COc1cc(C(C)=O)ccc1OCCCN1CCC(c2noc3cc(F)ccc23)CC1 5.26%
CCOC(=O)[C@H](CCc1ccccc1)N[C@H]1CCCN2CCC[C@@H](C(=O)O)N2C1=O -8.9%
CCCC1O[C@@H]2C[C@H]3[C@@H]4CCC5=CC(=O)C=C[C@]5(C)[C@H]4[C@@H](O)C[C@]3(C)[C@]2(C(=O)CO)O1 (stereo partly specified) -9.98% and -1.12%
c1ccc(-c2ccc(N3CC[C@@]4(CCCNC4)C3)cc2)cc1 -10.1%
NCCC1CCCC(CCN)N1 (stereo unspecified) -14%
CCS(=O)(=O)Nc1cc(C(=O)N2CCC[C@H]2CO)c2c(c1)nc(-c1ccccc1)n2C 3.54%
Cc1cc(COC(=O)C2N3C(=O)[C@@H](NC(=O)COc4ccccc4)[C@H]3SC2(C)C)on1 (stereo partly specified) -3.19%
COc1ccc(C(=O)N2CCC3(CCCN(Cc4cc(C(F)(F)F)cc(C(F)(F)F)c4)C3)CC2)cc1 -15.5%
COc1ccccc1-c1ccc2ncnc(NCCN3CCOCC3)c2c1 -14.7%
COc1ccc(OC)c(-c2cc(Cl)c3c(c2)CC(CNC(=O)[C@@H]2CCCN2C(C)=O)O3)c1 (stereo partly specified) -25.1%
Cc1ccccc1C1(CC(=O)N2CCOCC2)CC(=O)N(Cc2cccnc2)C1=O (stereo unspecified) -20.3%
O=C(O)C[C@H]1c2cc(C(F)(F)F)ccc2S(=O)(=O)N1C1CCCCC1 -9.54%
CN(Cc1ccco1)c1nc(-c2ccccc2C(F)(F)F)nc2ccccc12 -10.3%
COc1cc(-c2noc(C)c2-c2ccc(N(C)C)nc2)cc(OC)c1OC -16.9%
CN1[C@@H]2CC[C@H]1CC(OC(=O)c1c[nH]c3ccccc13)C2 (stereo partly specified) 1.87%
CCCCCCCCCCCCCCCCCCOCC(COP(=O)([O-])OCC[N+](C)(C)C)OC (stereo unspecified) -13.9%
COc1ccccc1CNc1cc(-c2cccc(C#N)c2)ncn1 -9.7%
Cc1cc(C)nc(S[C@H]2C[C@@H](C(=O)N3CCN(c4ccccc4F)CC3)N(Cc3ccccc3C(F)(F)F)C2)n1 12.4%
OC1C2COC(O2)[C@H](O)C1O (stereo partly specified) -28.7%
CCCCN1CC[C@H]2C=CC[C@@H](C(=O)N3CCOCC3)[C@H]2C1=O -13.5%
COc1cccc(Cn2c(=O)c(-c3ccc(Cl)cc3)nc3cnc(N(C)C)nc32)c1 5.47%
Cc1onc(-c2ccccc2)c1C(=O)N[C@@H]1C(=O)N2[C@@H](C(=O)O)C(C)(C)S[C@@H]12 0.698%
C=C[C@@H]1c2ccccc2N(S(=O)(=O)c2ccc(C)cc2)[C@H](c2ccccc2C(F)(F)F)C1(C#N)C#N -0.723%
COc1ccc(NC(=O)N2CCCC3(CCN(C(=O)c4ccco4)CC3)C2)cc1 -6.77%
COc1cc(C(O)CO)ccc1OS(=O)(=O)O (stereo unspecified) -18.7%
Cc1noc(C)c1-c1nccc(NCc2ccccc2)n1 -28.5%
Cc1ccc2oc(-c3ccccc3)c(O)c(=O)c2c1 -4.86%
O=C(c1ccco1)N(Cc1cc2cc3c(cc2nc1N1CCOCC1)CCC3)CC1CCCO1 (stereo unspecified) -1.79%
CN1CCCCCC1C(=O)NCC1Cc2cc(-c3cnccn3)ccc2O1 (stereo unspecified) 3.37%
Cc1ccc(CN2C[C@H](Sc3ccccn3)C[C@H]2C(=O)Nc2ccc3sc(C)nc3c2)s1 0.525%
CC(C)CN1CCC2(CC1)CCN(C(=O)c1ccco1)CC2 -7.83%
CN(CCO)C(=O)c1cn(C2CCN(Cc3cccc(C(F)(F)F)c3)CC2)nn1 -9.76%
COc1ccc(NC(=O)N2CCCC3(CCN(C(=O)c4cc(C(F)(F)F)cc(C(F)(F)F)c4)CC3)C2)cc1 -22.4%
COc1cc(-c2nc(C)cnc2C)cc2c1OCCN(C(=O)Cc1cc(OC)c(OC)c(OC)c1)C2 -14.3%
CC[C@H]1C(=O)[C@@H](Cc2ccccc2)[C@@H]2CCN3C(=O)CCC[C@H]1[C@H]23 -3.28%
O=C1O/C(=C/Br)CCC1c1cccc2ccccc12 (stereo unspecified) -38%
O=CN1CCCN(C(=O)c2cc(NC(=O)c3ccccc3)cc3ncn(C4CCCC4)c23)CC1 -4.8%
COc1ccc(CCNc2ncnc3sc(C(=O)N4CCCC4)c(C)c23)cc1OC -4.7%
CN1CCN(c2ncc3nc(-c4cc(F)cc(F)c4)c(=O)n(CCc4ccccc4)c3n2)CC1 1.89%
COC(=O)N1CCC[C@@]2(CCN(Cc3nccs3)C2)C1 -11.1%
CC(C)NC(=O)N1CC2(CCN(C(=O)c3ccncc3)CC2)C1 -19.6%
CCNc1ncc2nc(-c3ccc(Cl)cc3)c(=O)n(Cc3ccc(F)cc3)c2n1 -12%
CC1O[C@@H](O[C@H]2C(Oc3cc(O)c4c(c3)OC(c3ccc(O)cc3)CC4=O)OC(CO)C(O)C2O)C(O)C(O)C1O (stereo partly specified) -14.4%
CCN1CCCC1CNC(=O)c1cnn(-c2nccc(-c3cc(OC)ccc3OC)n2)c1C (stereo unspecified) 0.775%
CN(C)C(=O)c1ccc(-c2ccc3ncnc(NCc4cccnc4)c3c2)cc1 -6.72%
N#Cc1cccc(NC(=O)N2CCCC3(CCN(C(=O)c4ccco4)CC3)C2)c1 -11.6%
COCCNc1ncnc2ccc(-c3cccc(OC)c3)cc12 -2.86%
CC(O)COc1ccccc1 (stereo unspecified) -8.25%
Cn1c(=O)cnc2cnc(Nc3ccccc3)nc21 -26.5%
COc1cccc(Nc2ncc3nc(C)c(=O)n(CCc4ccccc4)c3n2)c1 3.94%
COc1ccccc1CNc1cc(-c2ccccc2C)ncn1 3.53%
O=C(c1ccncc1)N1CCC2(CC1)CCN(C(c1ccccc1)c1ccccc1)CC2 -11.7%
N#Cc1ccc(CN2CCCC3(CCN(C(=O)c4cnccn4)CC3)C2)cc1 -16.4%
CC(C(=O)O)c1cccc(C(=O)c2ccccc2)c1 (stereo unspecified) 3.13% and 9.94% and -26.6%
CC1(C)OC2C(CO)OC(n3cnc4c(=O)[nH]cnc43)C2O1 (stereo unspecified) -17.2%
CCCCCCCCCCCC(=O)OCC(O)CO (stereo unspecified) -76%
Nc1nc(N)c2nc(CNc3ccc(C(=O)N[C@@H](CCC(=O)O)C(=O)O)cc3)cnc2n1 -9.87%
COc1cc(=O)n2c(c1C(=O)N(C)Cc1nonc1C)CCN(Cc1ccc(F)cc1)CC2 -6.84%
CC(=O)Nc1ccc(/C=N/NC(N)=S)cc1 -26.2% and 5.8%
COC(=O)N1CCC2(CC1)CCN(C(c1ccccc1)c1ccccc1)CC2 0.719%
O=C(O)Cc1ccc(OCCNC[C@H](O)c2ccccc2)cc1 -0.721%
COc1ccccc1N1CCN(c2nc(CNC(=O)c3cc(C)oc3C)nc3ccccc23)CC1 -3.22%

Reference: PubChem BioAssay AID1645887 (National Center for Advancing Translational Sciences (NCATS), 2021)
